Hit rate of the full screen: of about 310,000 compounds, about 18,000 (5.8%) were called active. The shares of active, inactive and inconclusive entries below differ from those in the screen. Calls follow the shape of the dose curve; as a rule, active = well fitted inhibition curve with a large enough effect; inconclusive = small, poorly fitted or top-dose-only effect, or another doubt; inactive = no such curve, though single readings can be large or run the other way. No potency is given beside an inconclusive call; the fits are too rough.
experiment: Primary qHTS for delayed death inhibitors of the malarial parasite plastid, 48 hour incubation; settings: P. falciparum luciferase growth in erythrocytes; series mostly up to 28.7 µM; activity change, negative = inhibition: at the top concentration
In short: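 Luminescence readout; reporter = integrated firefly luciferase in P. falciparum. RBC culture at 2% hematocrit, 0.1% parasitemia final, 37 C/5% CO2; decreased signal taken as growth inhibition.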
% is scaled to controls: 0 for no effect and ±100 for the full control effect; potency is read from the fitted curve at half-maximal effect; tags tell the direction and shape of the fitted curve.

| SMILES | activity change, negative = inhibition | Potency |
| --- | --- | --- |
| COc1ccc(S(=O)(=O)Nc2ccc(F)cc2F)cc1C(=O)N1CCOCC1 | inactive: 7.34% |  |
| COc1ccc(CNC(=O)C2CCN(S(=O)(=O)c3ccc4c(c3)CC(C)N4C(=O)C3CC3)CC2)cc1 (centres undefined) |  | inconclusive [inhibitor, partial curve, poor fit] |
| CCOc1ccc(CN(C(=O)c2cc(=O)c3cc(C)cc(C)c3o2)C2CCS(=O)(=O)C2)cc1 (centres undefined) |  | active: 3.7 µM |
| O=S(=O)(Cc1ccccc1)Nc1ccc(S(=O)(=O)N2CCCC2)cc1 |  | active: 2.33 µM |
| CCCCn1c(N)c(S(=O)(=O)c2ccc(C)cc2)c2nc3ccccc3nc21 |  | inconclusive [inhibitor, single point] |
| O=C(CN1CC[n+]2c(-c3cccs3)csc21)c1ccc(Br)cc1 |  | active: 13.1 µM |
| COc1ccccc1N(CC(=O)Nc1ccc2c(c1)OCO2)S(=O)(=O)c1ccccc1 |  | inconclusive [inhibitor, full curve, poor fit] |
| COc1ccc(C(=O)Cc2cc3ccccc3oc2=O)cc1 | inactive: 88.9% |  |
| Cc1c(Cl)cccc1NC(=S)NCCC(c1ccccc1)c1ccccc1 |  | inconclusive [inhibitor, single point] |
| Cn1cccc1C(=O)NC1CCCCCC1 | inactive: 321% |  |
| Cc1nnc(N/N=C/c2ccc(-c3ccc(Br)cc3)o2)n1N |  | inconclusive [inhibitor, single point] |
| O=C(c1ccccc1)c1sc(N2CCCCCC2)nc1-c1ccccc1 |  | inconclusive [inhibitor, single point] |
| CC(C)(C)n1nnnc1C(c1cccs1)N1CCCc2ccccc21 (centres undefined) |  | inconclusive [inhibitor, partial curve, poor fit] |
| COc1cccc(C(=O)NC2CCCN(C3Cc4ccccc4C3)C2)c1OC (centres undefined) | inactive: -12.6% |  |
| O=C(N/N=C/c1ccc(OCCCF)cc1)c1ccc(C(F)(F)F)cc1 |  | inconclusive [inhibitor, partial curve, poor fit] |
| O=C(Nc1ccc2c(c1)OCO2)C1CCCN1C(=O)Nc1cccc(F)c1 (centres undefined) |  | inconclusive [inhibitor, single point] |
| COc1cc(-n2c(C)nc3cc(C(=O)NCc4ccco4)ccc32)cc(OC)c1OC |  | inconclusive [inhibitor, single point] |
| COCCNC(=O)c1nn2c(C(F)(F)F)cc(-c3ccccc3)nc2c1Cl | inactive: 81.4% |  |
| Cc1cccc(NC(=O)C2CCCN(S(=O)(=O)c3cccs3)C2)c1C (centres undefined) | inactive: -7.21% |  |
| CCOC(=O)C(O)(c1ccc(N(C)C(=O)c2ccc(Cl)c(Cl)c2)cc1)C(F)(F)F (centres undefined) |  | inconclusive [inhibitor, single point] |
| CC(C)C(=O)N1CCN(c2nc(-c3ccc(Cl)cc3)cs2)CC1 | inactive: 5.89% |  |
| Cc1ccc(N2C(=O)c3ccccc3C(C)(C)C2=O)cc1 |  | inconclusive [inhibitor] |

| SMILES | activity change, negative = inhibition | Potency |
| --- | --- | --- |
| COc1ccc(C2(C(=O)Nc3ccc(C)cc3)CCOCC2)cc1 |  | inconclusive [inhibitor, partial curve] |
| Cc1ccc(S(=O)(=O)NC(=O)Nc2cc(C)no2)cc1 | inactive: 0.452% |  |
| COc1ccc(C(=O)OCc2nc(N)nc(Nc3ccccc3C)n2)cc1OC |  | inconclusive [inhibitor, partial curve, poor fit] |
| CCCn1nc(C(=O)N2CCc3ccccc32)c2ccccc2c1=O |  | inconclusive [inhibitor, single point] |
| CCCCCCOc1ccc(OC(=O)c2ccncc2)cc1 |  | inconclusive [inhibitor, single point] |
| COc1ccc(N(CC(=O)Nc2cc(Cl)ccc2C)S(=O)(=O)c2c(C)n[nH]c2C)cc1 |  | inconclusive [inhibitor, single point] |
| N#Cc1ccc(S(=O)(=O)N2CCCN(c3nc4ccc(Cl)cc4s3)CC2)cc1 |  | inconclusive [inhibitor, single point] |
| Cc1ccc(-c2cc(=O)c3ccccc3[nH]2)cc1 |  | inconclusive [inhibitor, full curve] |
| CCOC(=O)C1=C(C)NC(=O)NC1c1ccc(OC(=O)c2ccco2)cc1 (centres undefined) | inactive: 9.67% |  |
| CCOc1ccccc1N1CCN(c2nc(N)c(C#N)c(CC#N)c2C#N)CC1 |  | inconclusive [inhibitor, single point] |
| O=C1NC(=O)[C@]2(Cc3ccccc3N3CCN(c4ccccc4)CC32)C(=O)N1Cc1ccccc1 (some centres undefined) |  | inconclusive [inhibitor, single point] |
| CCOC(=O)C1CCN(C(=O)c2sc3ncnc(N4CCC(C)CC4)c3c2C)CC1 |  | inconclusive [inhibitor, partial curve, poor fit] |
| Cc1cc(C)c(NC(=O)C2CC3CCC2C3)c(C)c1 (centres undefined) |  | active: 10.4 µM |
| Cc1ccc(NC(=O)C2CCCN(S(=O)(=O)c3cccc4cccnc34)C2)cc1 (centres undefined) |  | inconclusive [inhibitor, single point] |
| O=C(Nc1ccc(N2CCOCC2)cc1)C1(c2ccc(Cl)cc2)CCC1 |  | inconclusive [inhibitor, partial curve] |
| Cc1cc(OCCCC(=O)Nc2cccc(-n3cnnn3)c2)ccc1Cl |  | inconclusive [inhibitor, single point] |
| CCC(C)Nc1nc(N)c([N+](=O)[O-])c(N2CCCCCC2)n1 (centres undefined) |  | inconclusive [inhibitor, partial curve] |
| CCc1nonc1NC(=O)c1oc2ccc(Br)cc2c1C | inactive: 15.9% |  |
| COC(=O)C(CN)c1c[nH]c2ccc(OC)cc12 (centres undefined) | inactive: -0.306% |  |
| COc1ccccc1C(O)(C(=O)NNc1ccccc1C)c1ccccc1OC |  | inconclusive [inhibitor, single point] |
| CCN1C(=O)N(CC)C(=O)C2(Cc3ccccc3N3CCN(c4ccccc4)CC32)C1=O (centres undefined) |  | inconclusive [inhibitor, single point] |
| CCCc1cc(=O)oc2cc(C)cc(OCC(=O)NCc3cccnc3)c12 |  | inconclusive [inhibitor, single point] |
